{"source": "the supplement of paper PMC5499739", "note": "The full ranking holds about 16,000 sequences; the median of “Z-score” is about -0.37, and the highest 2% start at about 3.1. The list shows a part of the results.", "data": [{"test_system": "RBM10 RRM1-ZnF-RRM2 (GST-tagged construct)", "test": "RNAcompete 7-mer binding Z-score; higher = stronger binding preference", "in_short": "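GST-tagged RBM10 constructs (20 pmol) and a designed pool of 241 399 RNAs up to 41 nt (1.5 nmol) were allowed to bind for 30 min at 4°C in 1 ml Hepes pH 7.8 buffer with glutathione Sepharose beads. After four 2-min washes at 4°C, bound RNA was identified by microarray hybridisation. Enrichment was scored per heptamer motif as a one-sided Z-score across the probes containing it.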", "values": [{"sequence": "GUGCUUG", "RNAcompete 7-mer binding Z-score": -0.231}, {"sequence": "CUGAGUG", "RNAcompete 7-mer binding Z-score": 0.283}, {"sequence": "CAUUCGG", "RNAcompete 7-mer binding Z-score": -0.246}, {"sequence": "AUCGGCC", "RNAcompete 7-mer binding Z-score": -0.741}, {"sequence": "GCGUAUG", "RNAcompete 7-mer binding Z-score": 0.37}, {"sequence": "UAGACGA", "RNAcompete 7-mer binding Z-score": 0.184}, {"sequence": "AAGAUCC", "RNAcompete 7-mer binding Z-score": -0.643}, {"sequence": "CGUAGUG", "RNAcompete 7-mer binding Z-score": 0.457}, {"sequence": "GACAUCA", "RNAcompete 7-mer binding Z-score": -0.337}, {"sequence": "UAGGGAG", "RNAcompete 7-mer binding Z-score": 3.15}, {"sequence": "AGUCCAC", "RNAcompete 7-mer binding Z-score": -0.511}, {"sequence": "GAGGCUC", "RNAcompete 7-mer binding Z-score": -0.0525}, {"sequence": "UGUUCCU", "RNAcompete 7-mer binding Z-score": -0.865}, {"sequence": "CUCACUG", "RNAcompete 7-mer binding Z-score": -0.719}, {"sequence": "GACGUGG", "RNAcompete 7-mer binding Z-score": 1.84}, {"sequence": "UGCUGGU", "RNAcompete 7-mer binding Z-score": 0.0422}, {"sequence": "GUGAGGC", "RNAcompete 7-mer binding Z-score": 1.86}, {"sequence": "UAACUGA", "RNAcompete 7-mer binding Z-score": -0.329}, {"sequence": "UUGCCAU", "RNAcompete 7-mer binding Z-score": -0.897}, {"sequence": "AAGACUU", "RNAcompete 7-mer binding Z-score": -0.537}, {"sequence": "ACAAUGA", "RNAcompete 7-mer binding Z-score": 0.0313}, {"sequence": "CUCGAAA", "RNAcompete 7-mer binding Z-score": -0.493}, {"sequence": "GGUGGCU", "RNAcompete 7-mer binding Z-score": 0.927}, {"sequence": "GUCUAAA", "RNAcompete 7-mer binding Z-score": -0.588}, {"sequence": "AGAGGUC", "RNAcompete 7-mer binding Z-score": -0.0488}, {"sequence": "AACAGAG", "RNAcompete 7-mer binding Z-score": 0.967}, {"sequence": "CCAGGAU", "RNAcompete 7-mer binding Z-score": 0.49}, {"sequence": "UCCAACG", "RNAcompete 7-mer binding Z-score": -0.493}, {"sequence": "GGUAGAA", "RNAcompete 7-mer binding Z-score": 2.43}, {"sequence": "GUUAAAU", "RNAcompete 7-mer binding Z-score": -0.0962}, {"sequence": "UUGAGGU", "RNAcompete 7-mer binding Z-score": 1.29}, {"sequence": "CGAACAA", "RNAcompete 7-mer binding Z-score": 0.0823}, {"sequence": "UCGGUGU", "RNAcompete 7-mer binding Z-score": 0.235}, {"sequence": "AGGUUAC", "RNAcompete 7-mer binding Z-score": 0.538}, {"sequence": "UAUCCAU", "RNAcompete 7-mer binding Z-score": -0.326}, {"sequence": "GCCCUAA", "RNAcompete 7-mer binding Z-score": -0.712}, {"sequence": "UGCUUUU", "RNAcompete 7-mer binding Z-score": -0.872}, {"sequence": "GUCCGGU", "RNAcompete 7-mer binding Z-score": -0.0233}, {"sequence": "CCAGGGC", "RNAcompete 7-mer binding Z-score": 1.13}, {"sequence": "CAGAUGG", "RNAcompete 7-mer binding Z-score": 1.55}, {"sequence": "UCACCAC", "RNAcompete 7-mer binding Z-score": -0.562}, {"sequence": "UUCAAUA", "RNAcompete 7-mer binding Z-score": -0.151}, {"sequence": "UAUCUGC", "RNAcompete 7-mer binding Z-score": -0.555}, {"sequence": "ACAGUCG", "RNAcompete 7-mer binding Z-score": -0.173}, {"sequence": "ACCCUGG", "RNAcompete 7-mer binding Z-score": -0.329}, {"sequence": "CGGUCGA", "RNAcompete 7-mer binding Z-score": 0.141}, {"sequence": "CCCCACG", "RNAcompete 7-mer binding Z-score": -0.358}, {"sequence": "CUCUAGA", "RNAcompete 7-mer binding Z-score": -0.817}, {"sequence": "UCUUCCG", "RNAcompete 7-mer binding Z-score": -0.763}, {"sequence": "GAAGGAA", "RNAcompete 7-mer binding Z-score": 4.54}, {"sequence": "UGUCCCU", "RNAcompete 7-mer binding Z-score": -0.795}, {"sequence": "CGCAGUU", "RNAcompete 7-mer binding Z-score": -0.675}, {"sequence": "GAGUGUG", "RNAcompete 7-mer binding Z-score": 1.72}, {"sequence": "CGUACUU", "RNAcompete 7-mer binding Z-score": -0.799}, {"sequence": "AAAGACA", "RNAcompete 7-mer binding Z-score": 0.144}, {"sequence": "CCAUGUC", "RNAcompete 7-mer binding Z-score": -0.828}, {"sequence": "UAUAGCU", "RNAcompete 7-mer binding Z-score": -0.592}, {"sequence": "AUUUCCG", "RNAcompete 7-mer binding Z-score": -0.737}, {"sequence": "AUAAUCA", "RNAcompete 7-mer binding Z-score": -0.195}, {"sequence": "GCUAGCC", "RNAcompete 7-mer binding Z-score": -0.675}, {"sequence": "CGGGAUU", "RNAcompete 7-mer binding Z-score": 1.56}, {"sequence": "UAAACUA", "RNAcompete 7-mer binding Z-score": -0.315}, {"sequence": "ACUGGCU", "RNAcompete 7-mer binding Z-score": -0.337}, {"sequence": "GAGAUCA", "RNAcompete 7-mer binding Z-score": -0.114}, {"sequence": "CCCUGGC", "RNAcompete 7-mer binding Z-score": -0.435}, {"sequence": "AACCCCC", "RNAcompete 7-mer binding Z-score": -0.358}, {"sequence": "GGGCGAC", "RNAcompete 7-mer binding Z-score": 1.94}, {"sequence": "UCGACCG", "RNAcompete 7-mer binding Z-score": -0.566}, {"sequence": "GCGGGAG", "RNAcompete 7-mer binding Z-score": 2.64}, {"sequence": "UCGGCCU", "RNAcompete 7-mer binding Z-score": -0.712}, {"sequence": "CUUUGCC", "RNAcompete 7-mer binding Z-score": -1}, {"sequence": "AUGGUUA", "RNAcompete 7-mer binding Z-score": 2.06}, {"sequence": "UGUUGAC", "RNAcompete 7-mer binding Z-score": -0.457}, {"sequence": "CAGCAGG", "RNAcompete 7-mer binding Z-score": 1.14}, {"sequence": "CUACAUC", "RNAcompete 7-mer binding Z-score": -0.712}, {"sequence": "AUGCGUU", "RNAcompete 7-mer binding Z-score": -0.209}, {"sequence": "CGGGGCA", "RNAcompete 7-mer binding Z-score": 2.78}, {"sequence": "AGACCCU", "RNAcompete 7-mer binding Z-score": -1.19}, {"sequence": "GAUUGGA", "RNAcompete 7-mer binding Z-score": 2.28}, {"sequence": "CGUGUGA", "RNAcompete 7-mer binding Z-score": 0.0859}, {"sequence": "CAUCAGU", "RNAcompete 7-mer binding Z-score": -0.216}, {"sequence": "GUGAACG", "RNAcompete 7-mer binding Z-score": 1.21}, {"sequence": "AUGUGGU", "RNAcompete 7-mer binding Z-score": 1.14}, {"sequence": "CCGCGUA", "RNAcompete 7-mer binding Z-score": -0.613}, {"sequence": "ACAGAAG", "RNAcompete 7-mer binding Z-score": 0.723}, {"sequence": "AUUUGUU", "RNAcompete 7-mer binding Z-score": -0.657}, {"sequence": "GACACUC", "RNAcompete 7-mer binding Z-score": -0.792}, {"sequence": "CCUCAUU", "RNAcompete 7-mer binding Z-score": -0.912}, {"sequence": "CUGCGUG", "RNAcompete 7-mer binding Z-score": -0.304}, {"sequence": "CCUCUUC", "RNAcompete 7-mer binding Z-score": -0.795}, {"sequence": "GAGACGA", "RNAcompete 7-mer binding Z-score": 0.731}, {"sequence": "AGAGACU", "RNAcompete 7-mer binding Z-score": -0.537}, {"sequence": "UACUGCC", "RNAcompete 7-mer binding Z-score": -0.704}, {"sequence": "GUUGUAU", "RNAcompete 7-mer binding Z-score": 0.0204}, {"sequence": "AUAUGUU", "RNAcompete 7-mer binding Z-score": -0.471}, {"sequence": "UUUCCGC", "RNAcompete 7-mer binding Z-score": -0.744}, {"sequence": "UUUAUAC", "RNAcompete 7-mer binding Z-score": -0.734}, {"sequence": "CCUUAUC", "RNAcompete 7-mer binding Z-score": -0.89}, {"sequence": "UUCACUC", "RNAcompete 7-mer binding Z-score": -0.832}, {"sequence": "AUUCGAU", "RNAcompete 7-mer binding Z-score": -0.555}, {"sequence": "UAAGUAU", "RNAcompete 7-mer binding Z-score": -0.209}, {"sequence": "UCUGCAU", "RNAcompete 7-mer binding Z-score": -0.857}, {"sequence": "GCCUAUG", "RNAcompete 7-mer binding Z-score": -0.377}, {"sequence": "AACCGCA", "RNAcompete 7-mer binding Z-score": -0.683}, {"sequence": "GACAUGU", "RNAcompete 7-mer binding Z-score": -0.111}, {"sequence": "GCGGCAC", "RNAcompete 7-mer binding Z-score": 0.592}, {"sequence": "GCACCUG", "RNAcompete 7-mer binding Z-score": -0.621}, {"sequence": "UGUGAAC", "RNAcompete 7-mer binding Z-score": 0.261}, {"sequence": "GUACAUA", "RNAcompete 7-mer binding Z-score": -0.114}, {"sequence": "CAGUCCC", "RNAcompete 7-mer binding Z-score": -0.708}, {"sequence": "AACCGUU", "RNAcompete 7-mer binding Z-score": -0.828}, {"sequence": "ACGACAA", "RNAcompete 7-mer binding Z-score": -0.18}, {"sequence": "UGGUGGC", "RNAcompete 7-mer binding Z-score": 1.72}, {"sequence": "AGAUUAC", "RNAcompete 7-mer binding Z-score": -0.446}, {"sequence": "UAUUUGA", "RNAcompete 7-mer binding Z-score": -0.347}, {"sequence": "GCGCGGC", "RNAcompete 7-mer binding Z-score": 0.811}, {"sequence": "GAUCCAU", "RNAcompete 7-mer binding Z-score": -0.832}]}]}
